# According to PMC4336329 (PLoS ONE, 2015):
# Among all 310,000 compounds or so, about 2,200 (0.71%) showed an effect of 50% or more. The effect is printed as a negative number. The list shows a part of the results.
# Target: human ether-à-go-go-related gene (hERG) potassium channel (human, UniProt Q12809)
# Experiment: primary screen, population patch clamp on CHO cells stably expressing hERG
# Chain of human ether-à-go-go-related gene (hERG) potassium channel (Q12809 whole entry, looked up): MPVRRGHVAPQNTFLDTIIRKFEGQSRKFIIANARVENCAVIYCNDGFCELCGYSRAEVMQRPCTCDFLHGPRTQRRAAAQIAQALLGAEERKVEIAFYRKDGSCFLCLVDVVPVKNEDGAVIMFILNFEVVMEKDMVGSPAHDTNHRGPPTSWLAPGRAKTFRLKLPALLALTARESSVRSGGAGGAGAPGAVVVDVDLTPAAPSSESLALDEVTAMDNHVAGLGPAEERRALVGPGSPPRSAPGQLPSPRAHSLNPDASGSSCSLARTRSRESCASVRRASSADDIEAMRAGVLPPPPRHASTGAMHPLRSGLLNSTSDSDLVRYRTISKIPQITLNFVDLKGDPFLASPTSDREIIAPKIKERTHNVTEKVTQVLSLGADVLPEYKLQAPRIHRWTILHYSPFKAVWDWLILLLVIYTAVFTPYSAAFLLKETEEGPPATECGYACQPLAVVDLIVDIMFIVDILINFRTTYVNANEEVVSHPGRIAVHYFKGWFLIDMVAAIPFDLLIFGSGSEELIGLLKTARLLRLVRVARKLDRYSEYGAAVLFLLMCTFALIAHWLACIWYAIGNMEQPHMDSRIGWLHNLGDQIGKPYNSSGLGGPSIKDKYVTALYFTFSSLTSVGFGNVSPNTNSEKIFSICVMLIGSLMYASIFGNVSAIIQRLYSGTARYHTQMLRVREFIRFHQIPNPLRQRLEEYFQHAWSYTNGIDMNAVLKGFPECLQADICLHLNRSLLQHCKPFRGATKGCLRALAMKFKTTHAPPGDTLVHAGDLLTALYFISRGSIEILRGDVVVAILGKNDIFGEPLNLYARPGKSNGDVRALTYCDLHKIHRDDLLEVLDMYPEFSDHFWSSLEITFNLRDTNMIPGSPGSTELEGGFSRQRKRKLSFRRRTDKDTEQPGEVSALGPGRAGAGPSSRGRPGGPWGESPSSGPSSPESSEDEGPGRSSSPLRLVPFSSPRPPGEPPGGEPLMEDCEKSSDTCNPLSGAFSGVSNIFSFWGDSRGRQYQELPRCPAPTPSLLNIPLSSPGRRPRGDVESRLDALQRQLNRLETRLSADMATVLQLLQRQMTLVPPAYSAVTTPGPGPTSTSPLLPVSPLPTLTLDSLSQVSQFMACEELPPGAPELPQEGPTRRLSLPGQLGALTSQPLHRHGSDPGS
row,Compound,"hERG current change (%, negative = inhibition) at 1uM"
1,COc1cc(/C=C2\SC(=O)N(CCNC(=O)c3cnc(C)cn3)C2=O)cc(OC)c1OC,7.07%
2,CCn1cc(C(=O)N[C@H](C(=O)NCCCN2CCOCC2)C(C)C)c(=O)c2cc3c(cc21)OCO3,8.44%
3,c1ccc(-c2[nH]ncc2CN2CCN(Cc3ccc4c(c3)OCO4)CC2)cc1,-1.83%
4,CNC(=S)N/N=C/c1cn(CCOc2cccc(OC)c2)c2ccccc12,10.1%
5,O=C(NCc1ccc(F)cc1)C1CCC(=O)N1C1CCCCC1 (centres unmarked),-1.01%
6,Cl.O=C(NN1CCN(Cc2ccccc2)CC1)c1ccc(N2CCOCC2)c([N+](=O)[O-])c1,-12.8%
7,CC[C@@H](C)C(C(=O)N1CCN(C(=O)OC(C)(C)C)CC1)n1cc(-c2cn([C@@H](C)C(=O)N3CCN(C(=O)OC(C)(C)C)CC3)nn2)nn1 (some centres unmarked),8.79%
8,FC(F)(F)c1nc2ccccc2nc1N/N=C/c1c(Cl)cccc1Cl,15.4%
9,O=C(CC1CCCC1)Nc1ccc2c(c1)CCC2,2.93%
10,Cc1ccc(S(=O)(=O)N(C)C)cc1NC(=O)c1cccs1,12.4%
11,Cc1[nH]c2ccc(-c3n[nH]c(=S)n3Cc3ccccc3)cc2c1C,-0.49%
12,O=c1[nH]c(SCc2ccc(Cl)cc2)nc2[nH]ncc12,4.26%
13,O=C(NCCCNC(=O)C(F)(F)C(F)F)C(F)(F)C(F)F,2.64%
14,COc1ccc(C(=O)NCCS(=O)(=O)NCc2ccc(F)cc2)cc1,-8.81%
15,O=S(=O)(Nc1nc2ccc(S(=O)(=O)N3CCCCC3)cc2s1)c1ccccc1,3.25%
16,NS(=O)(=O)c1ccc(NC(=O)CSc2nnc(Cc3cccs3)n2-c2ccccc2)cc1,9.2%
17,CNc1nc(C)c(C(=O)OCC(=O)OC)s1,0.891%
18,Cn1nccc1C(=O)NC1CCCc2c1cnn2-c1ccc(F)cc1F (centres unmarked),5.11%
19,Cc1nn(-c2ccccc2)nc1C(=O)OCC(=O)N1CCC(C)CC1,-5.11%
20,CCc1nc(SCC(=O)c2ccc3c(c2)OCCO3)c2ccccc2n1,2.53%
21,O=C(c1ccc(F)cc1)N1CCCC(C(=O)N2CCc3ccccc3C2)C1 (centres unmarked),10.4%
22,CCN(CC)CCCN=Cc1c(O)n(-c2ccccc2C)c(=O)c2ccccc12,-12.5%
23,CCCCCCCC#Cc1ccccc1/C=N/S(=O)c1ccc(C)cc1 (centres unmarked),4.59%
